Among all 310,000 compounds or so, about 2,200 (0.71%) showed an effect of 50% or more. The effect is printed as a negative number. This is one part of the list.
target: human ether-à-go-go-related gene (hERG) potassium channel (human, UniProt Q12809); assay: primary screen, population patch clamp on CHO cells stably expressing hERG
Sequence (Q12809 whole entry, looked up): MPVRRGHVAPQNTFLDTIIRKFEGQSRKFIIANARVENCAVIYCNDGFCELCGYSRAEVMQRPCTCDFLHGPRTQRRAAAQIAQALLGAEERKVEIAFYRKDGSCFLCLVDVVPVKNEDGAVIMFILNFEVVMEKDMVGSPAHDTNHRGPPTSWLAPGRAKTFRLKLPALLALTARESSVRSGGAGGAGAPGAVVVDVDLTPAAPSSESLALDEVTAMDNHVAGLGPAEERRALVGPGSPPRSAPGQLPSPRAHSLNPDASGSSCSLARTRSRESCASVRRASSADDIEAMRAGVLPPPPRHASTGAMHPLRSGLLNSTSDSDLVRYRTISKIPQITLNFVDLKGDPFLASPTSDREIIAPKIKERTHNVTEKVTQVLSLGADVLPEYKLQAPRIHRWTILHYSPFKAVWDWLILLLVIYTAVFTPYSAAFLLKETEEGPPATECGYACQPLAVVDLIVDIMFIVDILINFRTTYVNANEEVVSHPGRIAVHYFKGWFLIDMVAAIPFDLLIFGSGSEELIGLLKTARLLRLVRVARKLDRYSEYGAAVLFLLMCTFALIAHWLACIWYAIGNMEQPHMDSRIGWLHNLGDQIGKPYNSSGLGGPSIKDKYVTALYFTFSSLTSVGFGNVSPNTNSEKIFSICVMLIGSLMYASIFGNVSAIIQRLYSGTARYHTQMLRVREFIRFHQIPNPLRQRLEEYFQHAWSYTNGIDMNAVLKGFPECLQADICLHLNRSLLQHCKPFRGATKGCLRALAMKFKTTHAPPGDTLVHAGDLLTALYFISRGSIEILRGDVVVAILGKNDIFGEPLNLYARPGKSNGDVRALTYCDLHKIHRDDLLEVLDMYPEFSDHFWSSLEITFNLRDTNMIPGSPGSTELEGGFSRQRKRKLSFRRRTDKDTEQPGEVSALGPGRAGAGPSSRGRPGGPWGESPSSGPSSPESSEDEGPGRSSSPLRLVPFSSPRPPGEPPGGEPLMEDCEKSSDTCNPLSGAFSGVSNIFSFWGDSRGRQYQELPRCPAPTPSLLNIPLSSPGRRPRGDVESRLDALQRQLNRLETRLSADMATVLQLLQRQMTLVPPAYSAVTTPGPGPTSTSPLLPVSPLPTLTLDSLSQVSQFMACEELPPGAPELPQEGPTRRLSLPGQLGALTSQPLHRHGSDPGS

Row | Structure (SMILES) | hERG current change (%, negative = inhibition) at 1uM
1 | NC(=O)C1CCN(C(=O)CCn2c(=O)oc3ccccc32)CC1 | 4.62%
2 | Cc1[nH]c(=O)[nH]c(=O)c1/C=N/NC(=O)CCNC(=O)OC(C)(C)C | 0.692%
3 | CCc1cc(-c2n[nH]c(C)c2Oc2ccc(C(C)C)cc2)c(O)cc1O | 3.89%
4 | Cc1cccc(NC2=NC(=S)N(c3ccc(C(=O)O)cc3)C23CCCCC3)c1 | 15.7%
5 | COc1cccc(/C=N/NC(=O)c2cc(-c3cccn3C)n[nH]2)c1O | 5.96%
6 | CC1(C)O[C@@H]2[C@H](O1)[C@@H](CO)O[C@H]2n1cnc2c(N)ncnc21 | 10.8%
7 | Cc1ccc(C(=O)COc2nc(C)cc(C)c2C#N)cc1 | -2.47%
8 | Cc1ccc(-c2cc(C(=O)NCc3cccs3)no2)cc1 | 6.37%
9 | COc1cc(OC)cc(OCC(O)Cn2ccnc2C)c1 (centres unmarked) | 7.8%
10 | COc1ccc(/C=N/Nc2c(Cl)cc(Cl)cc2Cl)cc1CN1CCOCC1 | 8.11%
11 | COc1ccc(CCNS(=O)(=O)c2ccccc2)cc1OC | 11.8%
12 | Cc1nn(C)cc1CNC(=O)C1(C)CC1(Cl)Cl (centres unmarked) | 17%
13 | CCOc1ccc2nc(SCC(=O)N(C)C)[nH]c2c1 | 15.7%
14 | COC(=O)C(Cc1ccc(OC(=O)c2ccc(Cl)cc2)cc1)N1Cc2ccccc2C1=O (centres unmarked) | 10.7%
15 | CS(=O)(=O)C1=C(O)C(=O)N(CCCC(=O)O)C1c1ccccc1F (centres unmarked) | 13.4%
16 | COc1ccc(CCn2c(=N)c(C(=O)NC3CCCC3)cc3c(=O)n4ccccc4nc32)cc1OC | -46.9%
17 | COc1ccc(CCN2C(=O)C3C4CC(C5C(C(N)=O)=NOC45)C3C2=O)cc1OC (centres unmarked) | 1.3%
18 | O=C(CSc1ccccc1C(=O)O)NCc1ccc(Cl)cc1 | 2.7%
19 | O=C(NCc1ccccc1)C(c1ccc(Cl)cc1)N(C(=O)c1csnn1)C1CC1 (centres unmarked) | 5.99%

Row | Structure (SMILES) | hERG current change (%, negative = inhibition) at 1uM
20 | CC(=O)Nc1ccc(S(=O)(=O)NC(CC(=O)NCCCN2CCOCC2)C(C)C)cc1 (centres unmarked) | 9.52%
21 | Cc1ccc(S(=O)(=O)N(Cc2cccnc2)Cc2cc3ccccc3[nH]c2=O)cc1 | -8.44%
22 | CCOc1cc(C(=O)NN=C2CCCC2)cc(OCC)c1OCC | 30.2%
23 | O=C(NCC1CCCO1)C1CCN(S(=O)(=O)c2cc(Cl)ccc2Cl)CC1 (centres unmarked) | -1.35%
24 | CCCN(CCC)CCCNC(=S)Nc1ccc2nc3n(c(=O)c2c1)CCCCC3 | 13.5%
25 | CCCC1(c2ccccc2)NC(=O)N(CC(=O)Nc2ccccc2C(F)(F)F)C1=O (centres unmarked) | 2.06%
26 | COC(=O)c1ccc(S(=O)(=O)N(C2CCCCC2)C2CCCCC2)n1C | 2.78%
27 | COc1ccc(Nc2nc3ccccc3nc2-n2nc(C)cc2C)cc1 | 0.379%
28 | COc1cc(-c2ccc(NC(C)=O)c(OC)c2)ccc1NC(C)=O | 1.37%
29 | O=C(CSc1ccc(Cl)cc1)Nn1cnnc1 | 1.19%
30 | Cc1ccc(CC(NC(=O)c2ccccc2)C(=O)NC(C)C(=O)O)cc1 (centres unmarked) | 5.25%
31 | O=C(O)CCC(=O)N1CCc2cc(S(=O)(=O)N3CCCCC3)ccc21 | 13.1%
32 | O=C(O)c1cc(N/N=C/c2cccnc2)ccc1Cl | -7.47%
33 | COc1cccc(C(=O)COC(=O)C(C)N2C(=O)C3C4C=CC(C4)C3C2=O)c1 (centres unmarked) | 5.43%
34 | O=C(O)c1c(F)c(F)c(F)c(F)c1-c1ccc(Cl)cc1 | 12.4%
35 | COC(=O)C1=C(c2ccc3ccccc3c2)C[C@@H]2CC[C@H]1N2C(=O)N1CCOCC1 | 4.17%
36 | COc1cc([N+](=O)[O-])ccc1-c1ccc(/C=N/NC(=O)OC(C)(C)C)o1 | 11.7%
37 | COc1ccc2c(c1)C(=O)N(CCc1ccc(S(=O)(=O)NC(=O)NC3CCCCC3)cc1)C(=O)C2(C)C | 7.24%
38 | O=C(Cn1ncc2c(=O)oc3ccccc3c21)NC1CC1 | 12.2%

Row | Structure (SMILES) | hERG current change (%, negative = inhibition) at 1uM
39 | CCCOc1cccc(C(=O)NC(=S)Nc2cccc(C(F)(F)F)c2)c1 | 14.4%
40 | COc1cc2c(cc1OC)CN(C1CC(=O)N(c3c(C)cccc3C)C1=O)CC2 (centres unmarked) | 12%
41 | Cc1cc(=O)oc2cc(OCC(=O)NCc3ccncc3)ccc12 | -1.77%
42 | C/C(=N\NC(=O)c1cc(O)cc(O)c1)c1ccc(NC(=O)Cc2ccccc2)cc1 | 12.4%
43 | N#CCCn1cc(C(=O)O)c(-c2cccc([N+](=O)[O-])c2)n1 | 8.49%
44 | COc1ccc(CNC(=O)CN(c2ccccc2)S(=O)(=O)N(C)C)cc1 | 7.99%
45 | CCC(C)Cn1c([O-])cc2nn(-c3nc4ccccc4s3)c(=O)c-2c1C.[Na+] (centres unmarked) | 7.81%
46 | CCOc1ccc(CN2CCCN(C)CC2)cc1 | 13.7%
47 | O=C1CC[C@@H](OCc2ccccc2)CCN1CC[C@H](Sc1ccccc1)c1ccccc1 | 4.54%
48 | O=C(Nc1cc(F)c(Br)cc1F)c1ccc(Cl)cc1 | 10.6%
49 | O=C1CC2(CCOCC2)Oc2ccc3ccccc3c21 | 10%
50 | O=C(NCC1(O)CCCCC1)C1CCC(=O)N(CCc2ccccc2)C1 (centres unmarked) | 21.7%
51 | CC(C)(C)NC(=O)c1ccccc1NC(=O)C1CCCO1 (centres unmarked) | 1.7%
52 | O=C(NCCN1C(=O)S/C(=C\c2ccc(F)cc2)C1=O)C1CCN(S(=O)(=O)c2cccs2)CC1 | 7.66%
53 | Cc1ccc(Cn2c(-n3nc(C)cc3C)nc3c2c(=O)[nH]c(=O)n3C)cc1 | -0.423%
54 | CN(C(=O)C(=O)c1cn(CC(=O)N2CCCC2)c2ccccc12)C1CCCCC1 | 5.88%
55 | Cn1nnc(NC(=O)c2ccc([N+](=O)[O-])cc2Cl)n1 | 13%
56 | Cc1ccc(/C=C2/C(=O)N(c3ccccc3)C(=S)N2C)o1 | 4.09%
